The whole screen tested about 420,000 compounds, of which about 64,000 (15%) were called active. Inconclusive results, whose numbers are uncertain, are shown with a selection of clear calls. Calls follow the shape of the dose curve; as a rule, active = well fitted inhibition curve with a large enough effect; inconclusive = small, poorly fitted or top-dose-only effect; inactive = flat fitted curve, though single readings scatter. Potencies of inconclusive entries are left out as doubtful fits.
Test: qHTS for Inhibitors of human tyrosyl-DNA phosphodiesterase 1 (TDP1): qHTS in cells in absence of CPT; also: nearly all actives have a fitted effect of over 55% in size
Conditions: DT40 Tdp1-/- hTDP1 cells, no CPT, ATP luminescence, 48 h; activity change, negative = growth inhibition: at 46.2 µM (top of the series) unless noted
Method in brief: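 Seeded 400 DT40-hTDP1 cells/well (vehicle DMSO, no 20 nM CPT); pinned compounds; ≥48 hr at 37 °C; CellTiter-Glo luminescence as viability measure.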
% is scaled to controls: 0 for no effect and ±100 for the full control effect; potency is read from the fitted curve at half-maximal effect; tags tell the direction and shape of the fitted curve.

| SMILES | Potency | activity change, negative = growth inhibition |
| --- | --- | --- |
| COC(=O)c1ccc(CSc2nc3ccc(C)cc3[nH]2)o1 | inconclusive [inhibitor, single point] |  |
| COc1ccc(C2CC(=O)C(CS(=O)(=O)c3ccccc3)C(=O)C2)cc1 (stereo not given) |  | inactive: -5.93% |
| COc1cc(C(C(=O)NC2CCCCC2)N(C(=O)c2snc(C(N)=O)c2N)c2ccc(C)cc2)ccc1O (stereo not given) | inconclusive [inhibitor, partial curve] |  |
| COc1cnn(-c2cccc(Cl)c2)c(=O)c1Cl | inconclusive [inhibitor, partial curve] |  |
| COc1cc(NC(=O)Nc2ccccc2)c(OC)cc1NC(=O)CN1CCCCC1 | inconclusive [inhibitor, single point] |  |
| Cc1ccccc1-c1nc(S(=O)(=O)c2ccccc2)c(NCCN2CCOCC2)o1 | inconclusive [inhibitor, single point] |  |
| O=C(N1CCCCC1)N1CCN(C(=O)N(c2ccccc2)c2ccccc2)CC1 | inconclusive [inhibitor, single point] |  |
| COC(=O)c1c(-c2ccccc2)csc1NC(=O)CSc1ncnc2sc(C)c(C)c12 | inconclusive [inhibitor, single point] |  |
| COc1cc(/C=N/NC(=O)c2cc(-c3ccccc3)sc2N)cc(OC)c1OC | active: 16.4 µM |  |
| O=C(OCc1ccccc1)N1CCC2CC1c1ccc(N3CCOCC3)cc12 (stereo not given) | inconclusive [inhibitor, single point] |  |
| COc1ccc(C(=O)NC2CCCCC2)cc1S(=O)(=O)N1CCCC1 |  | inactive: -24.7% |
| COc1ccc(S(=O)(=O)N(C)CC(=O)Nc2cccc(C(C)=O)c2)cc1Cl | active: 12.6 µM |  |
| O=C(Cn1c(=O)sc2ccccc21)Nc1ccc(S(=O)(=O)N2CCCCC2)cc1 |  | inconclusive: -30.3% [inhibitor] |
| Cc1ccc(NC(=O)Nc2ccccc2C#N)c(Cl)c1 |  | inactive: -26.8% |
| CC1(C(=O)NS(=O)(=O)c2cccs2)CCN1C(=O)CCc1ccc(Cl)cc1Cl (stereo not given) |  | inactive: 9.26% |
| Cc1cc(C)c(NC(=O)COc2ccc3c(C)cc(=O)oc3c2)c(C)c1 | inconclusive [inhibitor, partial curve] |  |
| CCOC(=O)c1sc(N2N=C(C)C(N=Nc3cccc(C)c3)C2=O)nc1C (stereo not given) | inconclusive [inhibitor, partial curve] |  |
| CCOC(=O)c1ccc(S(=O)(=O)N2CCN(S(=O)(=O)CC)CC2)cc1 |  | inactive: -4.87% |
| CC[n+]1c(/C=C/c2ccc(OC(C)=O)c(OC)c2)ccc2ccccc21 | active: 18.4 µM |  |
| CCC(=O)Oc1ccc2ccccc2c1CNC(=O)c1ccccc1 | inconclusive [inhibitor, partial curve] |  |
| CCOc1ccc(S(=O)(=O)c2cn(Cc3cc(C)ccc3C)c3ccc(OCC)cc3c2=O)cc1 | inconclusive [inhibitor, single point] |  |
| CCNC(=O)N(C)c1c(CC)nc2ccc(C(=O)Nc3cccc(OCC(=O)N(C)C)c3)cn12 |  | inactive: -6.41% |
| CCOC(=O)Cn1c(=O)oc2cc(S(=O)(=O)N3CCN(c4ccc(C(C)=O)cc4)CC3)ccc21 | inconclusive [inhibitor, single point] |  |

| SMILES | Potency | activity change, negative = growth inhibition |
| --- | --- | --- |
| CC1(C)CC(=O)C2=C(C1)c1c(ccc3ccccc13)NC2c1ccc(Br)o1 (stereo not given) | active: 20.6 µM |  |
| O=C(NCc1ccccc1)c1ncn(Cc2ccccc2)c1C(=O)NCc1ccccc1 | inconclusive [inhibitor, single point] |  |
| O=C(CCCn1c(=O)oc2ccccc21)N1CCN(c2ccc(F)cc2)CC1 |  | inactive: -9.56% |
| COCCn1c(C)cc(/C=C2/NC(=O)N(Cc3ccc(C)cc3)C2=O)c1C |  | inconclusive: -31.2% [inhibitor] |
| CCCCCCCCCn1c2c(c(=N)c3c1CCC3)CCC2 | active: 0.0184 µM |  |
| CCCCNS(=O)(=O)c1ccc(S(=O)(=O)N2CCC3(CC2)OCCO3)cc1 | inconclusive [inhibitor, single point] |  |
| CCN1C(=O)C2C(c3cccc(F)c3)NC(CC)(C(=O)OC)C2C1=O (stereo not given) |  | inactive: 0.536% |
| O=C(CCCCCCC(=O)c1ccccc1)c1ccccc1 |  | inactive: -19.7% |
| O=C(NC(=O)c1ccccc1O)c1ccc(C(F)(F)F)cc1 | active: 7.31 µM |  |
| O=C(c1nc(-c2ccccc2)n(-c2ccccc2)n1)N1CCCCCC1 | inconclusive [inhibitor, single point] |  |
| COc1ccccc1-n1c(-c2ccc(Cl)cc2)c[nH]c1=S | active: 20.6 µM |  |
| CC(=O)N(/N=C1\Sc2ccccc2C1=O)c1ccccc1 | inconclusive [inhibitor, partial curve] |  |
| O=C(c1cccnc1)N1CCN(c2ccc([N+](=O)[O-])cc2Cl)CC1 | inconclusive [inhibitor, single point] |  |
| CSCCC(NS(=O)(=O)c1ccc(F)cc1)C(=O)NCc1ccc(S(N)(=O)=O)cc1 (stereo not given) |  | inconclusive: -2.82% [inhibitor] |
| CC(=O)c1ccc(OCC(=O)NCCC2=CCCCC2)cc1 | inconclusive [inhibitor, single point] |  |
| CC1CCC2CCCCC2N1C(=O)c1cc([N+](=O)[O-])cc([N+](=O)[O-])c1 (stereo not given) | active: 18.4 µM |  |
| COc1ccc(NC(=O)OC(C)C)cc1 | inconclusive [inhibitor, partial curve, poor fit] |  |
| CC(C)c1ccc(OCC(=O)NC2=NCCS2)cc1 | inconclusive [inhibitor, single point] |  |
| COc1ccc(NC(=O)Cn2nc(C)c3nn(-c4ccc(Cl)cc4)c(C)c3c2=O)cc1 | inconclusive [inhibitor, single point] |  |
| COc1cccc(-c2nc(CS(=O)(=O)CC(=O)Nc3cccc(C)c3C)c(C)o2)c1 | inconclusive [inhibitor, single point] |  |
| O=C(CCc1nnc2ccc(NCc3ccccc3Cl)nn12)NC1CCCCC1 |  | inactive: 26.6% |
| Cn1c(N)c(C(=O)c2ccc(Cl)c(S(=O)(=O)N3CCCCCC3)c2)c(=O)n(C)c1=O |  | inactive: -25.9% |
